About 220 (0.56%) of roughly 39,000 compounds showed activity. The list shows a part of the results.
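Note: static incubation at 37 °C against the wild-type strain, values averaged over two biological replicates.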

The subject of the test is Escherichia coli K-12 BW25113. Description: relative growth (OD600 normalised to plate interquartile mean) (fraction); higher = less growth inhibition, active = 0.2 or less. To be noted: 50 µM; LB; incubation time: overnight (16-24 h).
For `CN[C@@H]1[C@@H](O[C@@]2(C)O[C@H](CO)[C@@H](N)[C@H](O)[C@H]2O)O[C@H]2C[C@@H](N)[C@@H](O[C@H]3[C@H](O)[C@@H](O)[C@H](N)C[C@@H]3N)O[C@@H]2[C@@H]1O`, the relative growth was inactive: 0.961. `Cc1ccccc1S(=O)(=O)N1C[C@H](O)COC[C@@H]2O[C@@H](CC(=O)N3CCC(Cc4ccccc4)CC3)CC[C@H]21`: the relative growth is inactive: 0.992.

With `COc1ccc([Si](C)(C)[C@@H]2[C@@H](CCO)O[C@]3(C(=O)N(Cc4ccccc4)c4ccc(N5CCCCC5=O)cc43)[C@H]2C)cc1`, the relative growth is inactive: 1.03. Under `C[C@@H]1CN([C@@H](C)CO)S(=O)(=O)c2ccc(C#Cc3ccccc3)cc2O[C@H]1CN(C)C(=O)c1ccccn1` stands inactive: 1.02; under `CCCN(C)C[C@@H]1OCCCC[C@H](C)Oc2ccc(NC(=O)Nc3ccc4c(c3)OCO4)cc2C(=O)N([C@H](C)CO)C[C@@H]1C`, inactive: 0.959; under `C[C@@H]1CN([C@H](C)CO)C(=O)c2cc(NC(=O)Nc3ccc(C(F)(F)F)cc3)ccc2O[C@H]1CN(C)CC1CCCCC1`, inactive: 1.02.

Take `C[C@@H]1CN([C@@H](C)CO)C(=O)c2cc(NC(=O)C3CCCCC3)ccc2O[C@@H](C)CCCCO[C@@H]1CN(C)Cc1ccc(Cl)c(Cl)c1`: the relative growth is inactive: 1.01. Under `Cc1ccc(S(=O)(=O)N(C)C[C@@H]2Oc3ccc(NC(=O)NC(C)C)cc3C(=O)N([C@H](C)CO)C[C@@H]2C)cc1` stands inactive: 0.998; under `O=C(C[C@@H]1C[C@H]2c3cc(NC(=O)NC4CCCC4)ccc3O[C@H]2[C@H](CO)O1)NCc1ccc2c(c1)OCO2`, inactive: 1.03. Under `Cn1c(=O)c2c(nc(SCC(=O)NC(C)(C)C)n2C)n(C)c1=O` stands inactive: 1.01; under `C[C@H]1CN([C@@H](C)CO)C(=O)c2cccc(NC(=O)Nc3ccc(C(F)(F)F)cc3)c2O[C@@H]1CN(C)Cc1ccc(C(=O)O)cc1`, inactive: 0.973; under `C[C@H](CO)N1C[C@H](C)[C@@H](CN(C)C(=O)CN(C)C)Oc2cc(C#CCN(C)C)ccc2S1(=O)=O`, inactive: 0.998.

As for `Cc1ccc(S(=O)(=O)N(C)C[C@@H]2Oc3ccc(NS(C)(=O)=O)cc3C(=O)N([C@H](C)CO)C[C@H]2C)cc1`, the relative growth was inactive: 0.991. For `Cc1noc(C)c1S(=O)(=O)Nc1ccc2c(c1)CC(=O)N([C@H](C)CO)C[C@@H](C)[C@H](CN(C)CC1CC1)O2`, the relative growth was inactive: 1.05. Regarding `COc1cccc(C(=O)Nc2ccc3c(c2)C(=O)N(C)[C@@H]2CC[C@@H](CC(=O)NCCCN4CCOCC4)O[C@H]2CO3)c1`, the relative growth is inactive: 1.03. Take `C[C@H]1CN([C@@H](C)CO)C(=O)Cc2cc(NS(C)(=O)=O)ccc2O[C@H]1CN(C)C(=O)Nc1ccccc1`: the relative growth is inactive: 0.93. Take `C[C@@H]1CCCCO[C@H](CN(C)S(=O)(=O)c2ccccc2)[C@H](C)CN([C@H](C)CO)C(=O)c2cc(NS(C)(=O)=O)ccc2O1`: the relative growth was inactive: 1.01. Next, `CNCCc1ccccn1`: inactive: 1.01; `C[C@@H]1CCCCO[C@@H](CN(C)S(=O)(=O)c2cn(C)cn2)[C@@H](C)CN([C@@H](C)CO)C(=O)c2cc(NC(=O)Nc3cccc4ccccc34)ccc2O1`: inactive: 1.01; `Cc1noc(C)c1S(=O)(=O)N(C)C[C@@H]1Oc2ccc(NC(=O)C3CCCCC3)cc2CC(=O)N([C@@H](C)CO)C[C@H]1C`: inactive: 0.969. Next, `C[C@@H]1CN([C@@H](C)CO)C(=O)CCCn2nncc2CO[C@H]1CN(C)C(=O)C1CC1`: inactive: 1.01; `CC1CCC2(C(=O)OC3OC(COC4OC(CO)C(OC5OC(C)C(O)C(O)C5O)C(O)C4O)C(O)C(O)C3O)CCC3(C)C(=CCC4C5(C)CC(O)C(O)C(C)(CO)C5CCC43C)C2C1C` (centres undefined): inactive: 0.922. Next, `C[C@H]1CN([C@@H](C)CO)S(=O)(=O)c2ccc(-c3ccc(C#N)cc3)cc2O[C@@H]1CN(C)C(=O)CN(C)C`: inactive: 0.99. Turning to `CC(C)NC(=O)N(C)C[C@@H]1Oc2ccc(NC(=O)Cc3ccccc3)cc2C(=O)N([C@@H](C)CO)C[C@@H]1C`, the relative growth is inactive: 0.966. Turning to `CC1=C(C)C(=O)C(C(CCCCCC(=O)O)c2ccccc2)=C(C)C1=O` (centres undefined), the relative growth is inactive: 1.18.

Regarding `C[C@H]1CCCCO[C@H](CN(C)Cc2ccncc2)[C@@H](C)CN([C@@H](C)CO)C(=O)c2cc(NC(=O)Nc3cccc4ccccc34)ccc2O1`, the relative growth was inactive: 0.997.

For `COc1ccc(CNC(=O)C[C@H]2CC[C@H]3[C@H](COc4ccc(NC(=O)C(C)C)cc4C(=O)N3C)O2)cc1`, the relative growth is inactive: 0.954. Next, `C[C@@H]1CCCCO[C@H](CN(C)C(=O)NC2CCCCC2)[C@@H](C)CN([C@H](C)CO)C(=O)c2cc(NC(=O)Nc3ccccc3)ccc2O1`: inactive: 0.984; `C[C@H]1CN([C@@H](C)CO)C(=O)c2cc(NS(=O)(=O)c3ccccc3)ccc2O[C@@H]1CN(C)S(=O)(=O)c1cccs1`: inactive: 0.999; `C[C@H]1CN([C@@H](C)CO)C(=O)c2cccc(NC(=O)Nc3ccccc3)c2O[C@@H]1CN(C)Cc1ccc(Cl)c(Cl)c1`: inactive: 0.95. Next, `C[C@H](CO)N1C[C@H](C)[C@@H](CN(C)S(C)(=O)=O)Oc2ccc(NS(C)(=O)=O)cc2CC1=O`: inactive: 0.919; `C[C@@H]1CN([C@@H](C)CO)S(=O)(=O)c2ccc(Br)cc2O[C@@H]1CN(C)S(=O)(=O)c1cn(C)cn1`: inactive: 1. Next, `Cc1ccc(S(=O)(=O)N(C)C[C@H]2Oc3ccc(NS(=O)(=O)c4ccc(F)cc4)cc3C(=O)N([C@H](C)CO)C[C@@H]2C)cc1`: inactive: 1.04; `N=C(N)NCCS`: inactive: 0.975; `Nc1nc(=O)c2c([nH]1)NCC(CNc1ccc(C(=O)NC(CCC(=O)O)C(=O)O)cc1)=N2` (centres undefined): inactive: 1.01. Turning to `COc1cc(S(C)(=O)=O)ccc1Nc1nc2ccc(-c3ccc(NC(=O)[C@H](C)c4ccc(F)cc4)cc3)cn2n1`, the relative growth is inactive: 1.06. Next, `CSc1ccc(-c2nnn(CC(N)=O)n2)cc1`: inactive: 0.975. Next, `CC1CC2C3CCC4=CC(=O)C=CC4(C)C3(F)C(O)CC2(C)C1C(=O)CO` (centres undefined): inactive: 1.08; `CC=CC(=O)N(CC)c1ccccc1C`: inactive: 1.05. Under `C[C@@H]1CCCCO[C@H](CN(C)Cc2ccc(C(=O)O)cc2)[C@@H](C)CN([C@H](C)CO)C(=O)c2cc(NC(=O)Nc3ccc4c(c3)OCO4)ccc2O1` stands inactive: 1.01; under `COc1ccc(NC(=O)N(C)C[C@H]2OCCCC[C@@H](C)Oc3ccc(NC(=O)c4ccncc4)cc3C(=O)N([C@H](C)CO)C[C@@H]2C)cc1`, inactive: 1.01; under `O=S(=O)(OC[C@H]1O[C@@](COS(=O)(=O)[O][Al]([OH])[OH])(O[C@H]2O[C@H](COS(=O)(=O)[O][Al]([OH])[OH])[C@@H](OS(=O)(=O)[O][Al]([OH])[OH])[C@H](OS(=O)(=O)[O][Al]([OH])[OH])[C@H]2OS(=O)(=O)[O][Al]([OH])[OH])[C@@H](OS(=O)(=O)[O][Al]([OH])[OH])[C@@H]1OS(=O)(=O)[O][Al]([OH])[OH])[O][Al]([OH])[OH].[OH][Al]([OH])[OH].[OH][Al]([OH])[OH].[OH][Al]([OH])[OH].[OH][Al]([OH])[OH].[OH][Al]([OH])[OH].[OH][Al]([OH])[OH].[OH][Al]([OH])[OH].[OH][Al]([OH])[OH]`, inactive: 0.972. On to `Cl.Cl.Cl.NCCCCNCCCN`, for which the relative growth is inactive: 0.932. Under `COc1ccc2c3c(n(c2c1)C)[C@H](CO)N(C[C@]13CN(C1)S(=O)(=O)c1ccccc1)C(=O)c1cccnc1` stands inactive: 1.

For the compound `COc1ccccc1NC(=O)N(C)C[C@@H]1Oc2ncc(C#CC(C)C)cc2C(=O)N([C@@H](C)CO)C[C@H]1C`, the relative growth was inactive: 1. As for `C[C@@H]1CCCCO[C@H](CN(C)S(=O)(=O)c2cn(C)cn2)[C@@H](C)CN([C@@H](C)CO)C(=O)c2cc(NC(=O)c3ccncc3)ccc2O1`, the relative growth is inactive: 0.965. Next, `CC(C)CC#Cc1ccc2c(c1)O[C@@H](CN(C)C(=O)Cc1cccnc1)[C@@H](C)CN([C@H](C)CO)S2(=O)=O`: inactive: 1.01; `C[C@@H]1CN([C@H](C)CO)C(=O)Cc2cc(NC(=O)Cc3cn(C)c4ccccc34)ccc2O[C@@H]1CN(C)C`: inactive: 0.993; `Nc1cc(=O)[nH]c(=O)n1-c1ccc(Cl)cc1`: inactive: 0.9.

Regarding `C[C@H]1CCCCO[C@H](CN(C)C(=O)c2ccccc2)[C@@H](C)CN([C@@H](C)CO)C(=O)c2cc(NC(=O)Nc3ccc(C(F)(F)F)cc3)ccc2O1`, the relative growth is inactive: 1.02.

For the compound `O=C(CN1CCOCC1)N[C@H]1CC[C@H](CCNC(=O)C2CCC2)O[C@@H]1CO`, the relative growth is inactive: 0.947. Next, `C[C@H]1CN([C@@H](C)CO)C(=O)c2cccc(NC(=O)C3CC3)c2O[C@@H]1CN(C)C(=O)NC1CCCCC1`: inactive: 1.03.

On to `Cc1noc(C)c1NC(=O)Nc1ccc2c(c1)C(=O)N([C@H](C)CO)C[C@H](C)[C@@H](CN(C)CC1CCCCC1)OCCCC[C@H](C)O2`, for which the relative growth was inactive: 0.979. Next, `CC(C)NC(=O)N(C)C[C@H]1Oc2ccc(NC(=O)c3ccncc3)cc2CC(=O)N([C@@H](C)CO)C[C@H]1C`: inactive: 0.979; `O=C(O)/C=C(\CC(=O)O)C(=O)O`: inactive: 0.979; `C[C@@H]1CN([C@H](C)CO)C(=O)c2cc(NC(=O)Cn3cnnn3)ccc2O[C@@H]1CN(C)Cc1ccc(Cl)c(Cl)c1`: inactive: 1.06. Next, `C[C@H]1CCCCO[C@H](CN(C)Cc2ccc(C(F)(F)F)cc2)[C@@H](C)CN([C@@H](C)CO)C(=O)c2cc(NC(=O)Nc3cccc4ccccc34)ccc2O1`: inactive: 1.07; `C[C@@H]1CN([C@@H](C)CO)C(=O)c2cc(NC(=O)C3CCCCC3)ccc2O[C@@H](C)CCCCO[C@@H]1CN(C)S(=O)(=O)c1ccc(F)cc1`: inactive: 1. Next, `C[C@H]1CN([C@@H](C)CO)C(=O)Cc2cc(NS(C)(=O)=O)ccc2O[C@H]1CN(C)Cc1ccc(C(=O)O)cc1`: inactive: 0.973.

For the origin of these results see the supplement of paper PMC9446081.
